Laboratory results as given in the RNAGym collection of RNA variant scans (doi:10.1073/pnas.2313332121).
Variants at the floor of the assay are shown more often than the library holds them.

B1: TPR 5TU (parent)
chain: GGAUCUUCUCGAUCUAACAAAAAAGACAAAUCUGCCACAAAGCUUGAGAGCAUCUUCGGAUGCAGAGGCGGCAGCCUUCGGUGGCGCGAUAGCGCCAACGUUCUCAACUAUGACACGCAAAACGCGUGCUCCGUUGAAUGGAGUUUAUCAUG

Variants of: B1
Assay: polymerase ribozyme fitness, log enrichment relative to wild type (log ratio); higher = more active; in vitro selection for triplet polymerase activity
Summary of the method: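 Fitness compares each genotype's enrichment to that of the wild type on a logarithmic scale, averaging replicates with inverse-variance weights. The logarithm is base 2. Enrichment came from Illumina sequencing of input and output libraries after one triplicate round of in vitro selection, which included frozen incubation at −7 °C, of PCR-built, transcribed mutant libraries of each subunit of a heterodimeric triplet polymerase ribozyme. Only genotypes with ≥10 input reads and ≥1 read per output were kept.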

| Variant | polymerase ribozyme fitness (log ratio) |
| --- | --- |
| A24G C79A G84A C116A | ≤ -4.2 |
| C27A C85G G94U U102G U151A | ≤ -4.2 |
| A26C G34U A60G C93U C118A U130G A147U | ≤ -4.2 |
| A26U C27U G46U U53G C96U C149A | ≤ -4.2 |
| A24C C76A | ≤ -4.2 |
| A24U C76G G84C C131A C132A G141C | ≤ -4.2 |
| A24C C32G U56A C93U | ≤ -4.2 |
| A24C C43U G62U C96G A120G U130C | ≤ -4.2 |
| A23U C85A A97U | ≤ -4.2 |
| A24G G50C A66G A121U C131U | ≤ -4.2 |
| C27A A91U U151A | ≤ -4.2 |
| A24U C32G U56A G92U U139A | ≤ -4.2 |
| G25U A41U A49C G68U A150G | ≤ -4.2 |
| C27A A40C G50C U56A G94A A98G | ≤ -4.2 |
| A24C G50U C99U C118A U144A | ≤ -4.2 |
| A26G U45G G50C G59C G68C C93G | ≤ -4.2 |
| A24C C116A U148A | ≤ -4.2 |
| C27A U44A U102G A110U G140A U148A | ≤ -4.2 |
| G25U G70C C123A | ≤ -4.2 |
| A26C A47C G62A C93U G141A | ≤ -4.2 |
| A26U C79U U102C C118U U144C | ≤ -4.2 |

| Variant | polymerase ribozyme fitness (log ratio) |
| --- | --- |
| A26U A29C C96A C116U A122C | ≤ -4.2 |
| A26U G81C G84A U90G | ≤ -4.2 |
| A24G A47G C85U C95G A121U G140C | ≤ -4.2 |
| G25U G71A G80U C93U | ≤ -4.2 |
| A24U A40U C51U A66C G84A G141C | ≤ -4.2 |
| A24C C38G U55A G83A G94C A97U G100U C105A | ≤ -4.2 |
| A26C C27U C85U G88U U139C A142G | ≤ -4.2 |
| A26G G50A C87U U101G A120U G141U | ≤ -4.2 |
| A24G A47G G83C U109A C116A C123G | ≤ -4.2 |
| C27A A37G G71C U134C U146A | ≤ -4.2 |
| A24U A30U C35U A41C G42U G59A C93G A113G | ≤ -4.2 |
| A26C C38A A49C C79U C93U | ≤ -4.2 |
| A24G A49G G59C G83U C85U U151A | ≤ -4.2 |
| A24U A39C G50U C57G C72G G81C C85U C118A C125U | ≤ -4.2 |
| A26G A64U C85G C95G A120U | ≤ -4.2 |
| A26G A41C U56A G65A A73G | ≤ -4.2 |
| A26C A39G C93A U102G C118G U127A A137C G143C | ≤ -4.2 |
| A24U G67C C93A A107G | ≤ -4.2 |
| A26U U45A G88U G133U | ≤ -4.2 |
| A24C C51U A60G C99A | ≤ -4.2 |
| A26C U44A G70U C85G | ≤ -4.2 |

| Variant | polymerase ribozyme fitness (log ratio) |
| --- | --- |
| G25A C93G | ≤ -4.2 |
| A26C C57G A89C C149U | ≤ -4.2 |
| A24C C27G A52U A89C | ≤ -4.2 |
| A24U C75U C76U A91U U135G U146A | ≤ -4.2 |
| C27A C54U G70C G83U G117C C129G G140C | ≤ -4.2 |
| C27A A37G G59C U77A C85A | ≤ -4.2 |
| G25U A29G U61G G92C | ≤ -4.2 |
| A23U U45C U61G U82C A107G A115G U146G | ≤ -4.2 |
| A26G G84A C85A C93A | ≤ -4.2 |
| A26G A66G G67A C75U A147C | ≤ -4.2 |
| A26U U53A C85A A115G G124C G141C U148G | ≤ -4.2 |
| G25U G68U C103G C108G | ≤ -4.2 |
| A24C A37G C43U U130A | ≤ -4.2 |
| A24U G68A C76G C93U A138C G152C | ≤ -4.2 |
| A26G C32U U78G C85U G133A | ≤ -4.2 |
| A26U A41C G46A G80C G84U C93G U148A | ≤ -4.2 |
| A24G C32U C35G A37C C79A A89U | ≤ -4.2 |
| A24C A39U | ≤ -4.2 |
| A26C G34C A98G C123G C125G A137G | ≤ -4.2 |
| A26C C32U U53A U55C G84U A91U U104C | ≤ -4.2 |
| A26C C76U G84U U111G A147U | ≤ -4.2 |

| Variant | polymerase ribozyme fitness (log ratio) |
| --- | --- |
| A26G C54U C63A C95U A110U C114G C131A | ≤ -4.2 |
| A24U C35U G48U C85G A137C | ≤ -4.2 |
| G25C U53A A89U A97U U146G | ≤ -4.2 |
| G25C A30G A52C U53A U77A G84U G86U C87A A121U G133U | ≤ -4.2 |
| A26G G86U C95U A115G A121C | ≤ -4.2 |
| A26C G62A G68U G80U U82A | ≤ -4.2 |
| A26C G59A C87G G124U | ≤ -4.2 |
| G25A A30G G92A C103A | ≤ -4.2 |
| A24G A66C C87G G92A U145G | ≤ -4.2 |
| A24G C35U C51U C75U A97G | ≤ -4.2 |
| A23U G50A A52U C87G A89C C96A A137U A142C | ≤ -4.2 |
| A24U A107G C123U G140U U145G A150G | ≤ -4.2 |
| A26U G100A C149A | ≤ -4.2 |
| A26U G42A G83A C116U G136U | ≤ -4.2 |
| A24G G50U G94A A98G U144C | ≤ -4.2 |
| A26G C54G C57A A73U C85A C105A | ≤ -4.2 |
| A24G A26U U56A C87G C149G G152A | ≤ -4.2 |
| A26C C35G G50C C96G G143U | ≤ -4.2 |
| A24C G68A C96U C105U A120G A121U | ≤ -4.2 |
| A26G A137G G143C | ≤ -4.2 |
